# Assay results published in the supplement of paper PMC8728848.
# The other results are listed elsewhere or left out.
# B1: Epa3 (Candida glabrata), Q6VBI8_CANGB (protein)
# chain: MGSSHHHHHHSSGLVPRGSHMNDLGFSLFEKRELSSQNPFGYPIGCSPQDVAIIPGLTMELYSYPIVSGTPPNCYDASYVDPEYPRTGYLKRKMVGKSTGVTGNLNYKYSVEKACMVKYGNLPAGYNYNEPLTVSNFTMILYGYFKAQTTGLHTFFVNADDLLYINFGAGNAFDCCKREDSKTKLGEYVAYDIWHVDSSKNKVSLFLEKDLYYPIRMFFNNIGKDSSLDLSFSVNGATDQISDFSGYLYSVPDQPDTCPAHIGYDTTCR
# Tests used:
# Experiment in all cases: glycan array binding signal (z-score within array); higher = stronger binding
# Conditions in all cases: glycan notation: IUPAC condensed, linker removed
# [1] = biological target: Gal(b1-4)GlcNAc(b1-2)Man(a1-6)[GlcNAc(b1-2)Man(a1-3)]Man(b1-4)GlcNAc(b1-4)GlcNAc
# In short: (§1)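 From the Consortium for Functional Glycomics database, 3228 arrays were curated, keeping only those whose protein sequence was available. Binding is given as a within-array Z-score averaged across arrays sharing a protein sequence and across linkers. Negative Z-scores can be read as non-binding.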
# [2] = biological target: Gal(b1-4)GlcNAc(b1-2)Man(a1-6)[Man(a1-3)]Man(b1-4)GlcNAc(b1-4)GlcNAc
# In short: as §1
# [3] = biological target: Gal(b1-4)GlcNAc(b1-2)[Gal(b1-4)GlcNAc(b1-4)]Man(a1-3)[Gal(b1-4)GlcNAc(b1-2)Man(a1-6)]Man(b1-4)GlcNAc(b1-4)GlcNAc
# In short: as §1
# [4] = biological target: Gal(b1-4)GlcNAc(b1-2)[Gal(b1-4)GlcNAc(b1-4)]Man(a1-3)[Gal(b1-4)GlcNAc(b1-2)[Gal(b1-4)GlcNAc(b1-6)]Man(a1-6)]Man(b1-4)GlcNAc(b1-4)GlcNAc
# In short: as §1
# [5] = biological target: Gal(b1-4)GlcNAc(b1-2)[Gal(b1-4)GlcNAc(b1-4)]Man(a1-3)[GlcNAc(b1-4)][Gal(b1-4)GlcNAc(b1-2)Man(a1-6)]Man(b1-4)GlcNAc(b1-4)GlcNAc
# In short: as §1
# [6] = biological target: Gal(b1-4)GlcNAc(b1-2)[Gal(b1-4)GlcNAc(b1-4)]Man(a1-3)[GlcNAc(b1-4)][Gal(b1-4)GlcNAc(b1-2)[Gal(b1-4)GlcNAc(b1-6)]Man(a1-6)]Man(b1-4)GlcNAc(b1-4)GlcNAc
# In short: as §1
# [7] = biological target: Gal(b1-4)GlcNAc(b1-2)[Gal(b1-4)GlcNAc(b1-6)]Man(a1-6)[Gal(b1-4)GlcNAc(b1-2)Man(a1-3)]Man(b1-4)GlcNAc(b1-4)GlcNAc
# In short: as §1
# [8] = biological target: Gal(b1-4)GlcNAc(b1-2)[Gal(b1-4)GlcNAc(b1-6)]Man(a1-6)[Gal(b1-4)GlcNAc(b1-2)Man(a1-3)]Man(b1-4)GlcNAc(b1-4)[Fuc(a1-6)]GlcNAc
# In short: as §1
# [9] = biological target: Gal(b1-4)GlcNAc(b1-2)[Gal(b1-4)GlcNAc(b1-6)]Man(a1-6)[GlcNAc(b1-4)][Gal(b1-4)GlcNAc(b1-2)Man(a1-3)]Man(b1-4)GlcNAc(b1-4)GlcNAc
# In short: as §1
# [10] = biological target: Gal(b1-4)GlcNAc(b1-2)[Gal(b1-4)GlcNAc(b1-6)]Man(a1-6)[GlcNAc(b1-4)][Gal(b1-4)GlcNAc(b1-2)[Gal(b1-4)GlcNAc(b1-4)]Man(a1-3)]Man(b1-4)GlcNAc(b1-4)[Fuc(a1-6)]GlcNAc
# In short: as §1
# [11] = biological target: Gal(b1-4)GlcNAc(b1-3)Gal(b1-3)GalNAc
# In short: as §1
# [12] = biological target: Gal(b1-4)GlcNAc(b1-3)Gal(b1-3)GlcNAc
# In short: as §1
# [13] = biological target: Gal(b1-4)GlcNAc(b1-3)Gal(b1-4)Glc
# In short: as §1
# [14] = biological target: Gal(b1-4)GlcNAc(b1-3)Gal(b1-4)GlcNAc
# In short: as §1
# [15] = biological target: Gal(b1-4)GlcNAc(b1-3)Gal(b1-4)GlcNAc(b1-2)Man(a1-3)[Gal(b1-4)GlcNAc(b1-3)Gal(b1-4)GlcNAc(b1-2)Man(a1-6)]Man(b1-4)GlcNAc(b1-4)GlcNAc
# In short: as §1
# [16] = biological target: Gal(b1-4)GlcNAc(b1-3)Gal(b1-4)GlcNAc(b1-2)Man(a1-3)[Gal(b1-4)GlcNAc(b1-3)Gal(b1-4)GlcNAc(b1-2)Man(a1-6)]Man(b1-4)GlcNAc(b1-4)[Fuc(a1-6)]GlcNAc
# In short: as §1
# [17] = biological target: Gal(b1-4)GlcNAc(b1-3)Gal(b1-4)GlcNAc(b1-2)[Gal(b1-4)GlcNAc(b1-3)Gal(b1-4)GlcNAc(b1-6)]Man(a1-6)[Gal(b1-4)GlcNAc(b1-3)Gal(b1-4)GlcNAc(b1-2)Man(a1-3)]Man(b1-4)GlcNAc(b1-4)GlcNAc
# In short: as §1
# [18] = biological target: Gal(b1-4)GlcNAc(b1-3)Gal(b1-4)GlcNAc(b1-2)[Gal(b1-4)GlcNAc(b1-3)Gal(b1-4)GlcNAc(b1-6)]Man(a1-6)[Gal(b1-4)GlcNAc(b1-3)Gal(b1-4)GlcNAc(b1-2)Man(a1-3)]Man(b1-4)GlcNAc(b1-4)[Fuc(a1-6)]GlcNAc
# In short: as §1
binder,measurement,setting,value
B1,glycan array binding signal (z-score),[1],-0.343
same,glycan array binding signal (z-score),[2],-0.091
same,glycan array binding signal (z-score),[3],-0.26
same,glycan array binding signal (z-score),[4],-0.301
same,glycan array binding signal (z-score),[5],-0.437
same,glycan array binding signal (z-score),[6],-0.286
same,glycan array binding signal (z-score),[7],-0.067
same,glycan array binding signal (z-score),[8],-0.134
same,glycan array binding signal (z-score),[9],-0.347
same,glycan array binding signal (z-score),[10],-0.301
same,glycan array binding signal (z-score),[11],-0.203
same,glycan array binding signal (z-score),[12],-0.224
same,glycan array binding signal (z-score),[13],-0.2
same,glycan array binding signal (z-score),[14],-0.401
same,glycan array binding signal (z-score),[15],1.13
same,glycan array binding signal (z-score),[16],0.089
same,glycan array binding signal (z-score),[17],0.339
same,glycan array binding signal (z-score),[18],0.064
